Reference: PubChem BioAssay AID1745853 (National Center for Advancing Translational Sciences (NCATS), 2022)
Several values for one entry are separate records, joined by “and”; a condition that tells them apart may be missing. Equal entries are not always repeated. Some of the results follow. Further columns of the screen follow, without active or inactive calls.

Experiments:
Experiment in all cases: Primary Screen for Target Class Profiling of Small Molecule Inhibitors of Methyltransferases
[1] = target: Glycine N-methyltransferase (Homo sapiens) (UniProt Q14749); details: purified enzyme, MTase-Glo SAH luminescence; measured here: GNMT inhibition; at 40 µM; stronger effect = lower value
Summary of the method: (§1)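 Each enzyme was assayed with SAM and its substrate. SAH formation detected by MTase-Glo luminescence; single-point 40 uM screen[…].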

[2] = target: Guanidinoacetate N-methyltransferase (Homo sapiens) (UniProt Q14353); details: purified enzyme, MTase-Glo SAH luminescence; measured here: GAMT inhibition; at 40 µM; stronger effect = lower value
Summary of the method: as §1

[3] = target: Histamine N-methyltransferase (Homo sapiens) (UniProt P50135); details: purified enzyme, MTase-Glo SAH luminescence; measured here: HNMT inhibition; at 40 µM; stronger effect = lower value
Summary of the method: as §1

[4] = target: Nicotinamide N-methyltransferase (Homo sapiens) (UniProt P40261); details: purified enzyme, MTase-Glo SAH luminescence; measured here: NNMT inhibition; at 40 µM; stronger effect = lower value
Summary of the method: as §1

[5] = target: Phenylethanolamine N-methyltransferase (Homo sapiens) (UniProt P11086); details: purified enzyme, MTase-Glo SAH luminescence; measured here: PNMT inhibition; at 40 µM; stronger effect = lower value
Summary of the method: as §1
% is set by controls: 0 for no effect and ±100 for the full control effect.

Structure (SMILES) | activity change, negative = inhibition [1] [%] | activity change, negative = inhibition [2] [%] | activity change, negative = inhibition [3] [%] | activity change, negative = inhibition [4] | activity change, negative = inhibition [5] [%]
COc1ccc(S(=O)(=O)Nc2ccc3n(c2=O)C[C@H]2C[C@@H]3CN(C(=O)Nc3cc(OC)cc(OC)c3)C2)cc1 | -11.3 | -13.1 | -11.6 | -21.4% | -30.7
CC(C)Cn1c(=O)c2ccc(C(=O)NC(C)C)cc2n2c(SCC(N)=O)nnc12 | 4.97 | 0 | 9.42 | 4.91% | 5.91
Oc1ccc2c(c1)OCC1(O)Cc3cc(O)c(O)cc3C21 (stereo unspecified) | – | -2.32 | – | -18.1% | 3.98
C[C@@H]1O[C@@H](O[C@H]2[C@H](O)[C@@H](O[C@@H]3O[C@H](CO)[C@@H](O)[C@H](O[C@@H]4O[C@H](CO)[C@@H](O)[C@H](O)[C@H]4O)[C@H]3O)[C@H](O[C@H]3CC[C@@]4(C)C(=CC[C@@H]5C4CC[C@@]4(C)C5C[C@@H]5OC6(CC[C@@](C)(CO[C@@H]7O[C@H](CO)[C@@H](O)[C@H](O)[C@H]7O)O6)[C@@H](C)[C@@H]54)C3)O[C@@H]2CO)[C@H](O)[C@H](O)[C@H]1O (stereo partly specified) | -2.56 | -9.89 | 7.47 | -20.8% | -9.22
CCN(CC)C(=O)c1cc2c(s1)CCC(C(=O)O)C2 (stereo unspecified) | -2 | -1.45 | 0.613 | -1.71% | -6.21
CC1(C)CC2C(O)C3=C(CC(C)(O)C2C1)C(=O)OC3O (stereo unspecified) | 5.2 | 6.89 | 14 | -6.79% | 7.83
Cc1cccc(OCc2c(C(=O)N3CCCC3c3nncn3CCN(C)C)noc2C)c1 (stereo unspecified) | -5.46 | -1.41 | -1.13 | -2.42% | 2.8
C=C(C)C(=O)O[C@H]1[C@H]2C(=C)C(=O)O[C@@H]2/C=C(\CO)CC/C=C(/C=O)[C@@H]1O | -3.88 | -1.37 | 2.5 | -12.8% | -9.15
OC[C@H]1O[C@@H](n2cnc3c(NC4CCCCC4)ncnc32)[C@H](O)[C@@H]1O | -0.715 | 7.58 | 7.19 | -13.3% | -9.1
O=C1CCCN1CCCN1C(=O)[C@H]2CN(Cc3ccc(Cl)cc3)C[C@H]2C1=O | -1.65 | 0.608 | 0.437 | -3.68% | -1.65
CC1(C)OC(=O)CC(O)C2(C)C1CC(=O)C1(C)C2C(O)CC2(C)C(c3ccoc3)OC(=O)C3OC321 (stereo unspecified) | 3.96 | 3.26 | 8.46 | -9.09% | 0.311
CC(=O)OC1C(O)C(C)=C(CCC(C)CC(=O)O)C2(C)CCCC(C)(C)C12 (stereo unspecified) | 2.57 | 7.11 | 12.5 | -6.98% | 5.29
COc1cccc(N2CCN(S(=O)(=O)c3cc4[nH]c(=O)[nH]c4cc3C)CC2)c1 | -14.2 | -3.73 | -12.4 | -18.3% | -22.5
CC1(C(=O)NC2CCCCCC2)Cn2nc(-c3cccs3)cc2C(=O)N1c1ccc(F)cc1 (stereo unspecified) | 1.22 | 4.67 | 1.67 | 3.57% | -0.396
CC(C)(C)CC(=O)NC[C@H]1OC[C@@H](NC2CCCC2)[C@@H]1O | -4.26 | -14.1 | -1.41 | -7.77% | -6.96
O=C1c2ccccc2CN1C1CCN(Cc2cccc3ccccc23)CC1 | -8.46 | -3.98 | -4.86 | -8.13% | -3.47
CCS(=O)(=O)N1C[C@@H]2CN(Cc3ncc[nH]3)C[C@]2(C(=O)O)C1 | -5.83 | -2.45 | -1.82 | -7.47% | -0.314
COc1cc(NC(=O)c2cc(C3CC3)on2)c(OC)cc1Cl | 0.674 | 1.22 | 6.1 | -10.1% | -6.86
CCCn1c(=O)c2ccc(Cl)cc2n2c(=O)n(CC(=O)c3cccc(Cl)c3)nc12 | 0.688 | 2.58 | 11.8 | -6.08% | 3.44
O=C(C1CCCC1)N1CC2(CCN(Cc3cccnc3)CC2)Cc2ccccc21 | -6.41 | -1.85 | -13.3 | -20.6% | -2.37

Structure (SMILES) | activity change, negative = inhibition [1] [%] | activity change, negative = inhibition [2] [%] | activity change, negative = inhibition [3] [%] | activity change, negative = inhibition [4] | activity change, negative = inhibition [5] [%]
N[C@H]1Cc2ccccc2N(O)C1=O | -2.98 | 8.32 | -3.23 | -15.4% | -24
COc1ccccc1C(=O)N1CCC2(CC1)C(=NC1CCCCC1)NC(=O)N2c1cccnc1 | -0.743 | -1.38 | 1.09 | -9.02% | -17.1
CC1(NC(=O)C2CC2)CN(c2ccc(OC(F)(F)F)cc2)C1 | 0.902 | 2.62 | 2.24 | -2.4% | 11.1
Cc1ccc2c(n1)Oc1ccc(C(C)C(=O)OCC(=O)N(C)C)cc1C2 (stereo unspecified) | -17.3 | -12.2 | 1.68 | -22.7% | -8.45
O=S(=O)(/N=C/c1c(O)ccc2ccccc12)c1cccs1 | – | 2.07 | – | -6.74% | -25.5
COc1cccc(C(=O)N2CCCN(CCn3nc4n(c3=O)CCCC4)CC2)c1 | -3.38 | -3.29 | -1.3 | -6.01% | -14
COc1cccc(CN2C(=O)c3cc4oc(C)cc4n3CC2(C)C(=O)NC2CCCCC2)c1 (stereo unspecified) | 0.233 | 2.28 | -1.03 | -4.32% | -1.48
CCCn1c(=O)c2ccc(Cl)cc2n2c(=O)n(CC(=O)Nc3ccc(C)c(C)c3)nc12 | 6.35 | 0 | 9.17 | -0.526% | 2.83
CC(C)n1c(=O)c2ccc(C(=O)NC3CCCCC3)cc2n2c(=O)n(Cc3ccc(F)cc3)nc12 | 6.46 | 0 | 8.84 | 6.26% | 4.89
CC1C(=O)Nc2ccc(S(=O)(=O)N3CCN(c4cccc(C(F)(F)F)c4)CC3)cc2NC1=O (stereo unspecified) | 2.47 | 0 | 2.44 | -9.68% | -0.652
CC(C)OCCCN1C(=O)c2cc3occc3n2CC1(C)C(=O)NC1CCCCCC1 (stereo unspecified) | 0.714 | 0 | 3.54 | 5.01% | -2.85
CC(C)CNC(=O)c1ccc2c(=O)n(C(C)C)c3nn(Cc4ccccc4)c(=O)n3c2c1 | 0.424 | 0 | 7.04 | 0.725% | 2.23
O=c1[nH]c2ccc(S(=O)(=O)NCc3ccc(F)cc3)cc2[nH]1 | -1.65 | 1.62 | -3.6 | -7.96% | -10.1
C=C1CCC2C(C)(C(=O)O)CCCC2(C)C1CC/C(C)=C\CO (stereo unspecified) | 4.21 | -4.54 | 8.89 | -19.1% | 1.29
O=C(Nc1cccnc1)c1cnc2c(c1)N(Cc1ccccc1)CCC2 | -27.6 | -14.4 | -31.6 | -23.4% | -15.2
CNc1nc(NCc2ccc(NS(C)(=O)=O)cc2Cl)cc(-c2ccccn2)n1 | -5.57 | -4.52 | -37.6 | -22.1% | -0.099
CCc1ccc(S(=O)(=O)c2nnn3c2nc(NC2CCCC2)c2ccccc23)cc1 | 2.2 | 2.63 | 3.06 | -5.23% | 0.707
CCc1cc2c(cc3n2CC(C)(C(=O)NC2CCC(C)CC2)N(Cc2cccc(OC)c2)C3=O)s1 (stereo unspecified) | 4.54 | -4.91 | 7.53 | -1.34% | 0.383
COc1ccc2c(c1)CN(C1CCN(C)CC1)CC[C@H]1COC(=O)N21 | -1.16 | -2.36 | 1.64 | -3.38% | -0.569
CCc1cc2c(cc3n2CC(C)(C(=O)NC2CCCCCC2)N(Cc2ccc(F)cc2)C3=O)s1 (stereo unspecified) | 0.898 | 0.279 | 1.75 | 0.416% | -2.12

Structure (SMILES) | activity change, negative = inhibition [1] [%] | activity change, negative = inhibition [2] [%] | activity change, negative = inhibition [3] [%] | activity change, negative = inhibition [4] | activity change, negative = inhibition [5] [%]
Fc1ccc(OCc2nc(C3CCNCC3)no2)cc1 | -8.34 | -11.1 | -7.58 | -14.2% | -21.8
O=C(Nc1nc2cc(C(F)(F)F)cc(NC3CC3)n2n1)c1cccnc1 | 6.93 | 9.61 | 7.11 | -10.1% | 2.96
CCCCCCCC/C=C\CCCCCCCC(=O)NCCc1ccc(O)c(O)c1 | -12.8 | 14.5 | 7.25 | -18.1% | -3.52
COc1cccc(Cn2nc3n(Cc4ccccc4)c(=O)c4ccccc4n3c2=O)c1 | -4.45 | 3.67 | 1.16 | -0.264% | -2.15
CC1CCN(CC2CCCCCN2C(=O)Nc2ccc3c(c2)OCCO3)CC1 (stereo unspecified) | -2.83 | 0.098 | -2 | 0.023% | 16.5
CCC/C=C/C=C/C1CC(O)C(O)C(=O)C1CO (stereo unspecified) | 4.3 | 7.96 | 10.6 | -4.77% | 7.43
CCN1c2cc(C(=O)Nc3ccccc3OC)ccc2C(=O)N2CCCCCC21 (stereo unspecified) | -5.22 | -1.24 | -5.92 | -10.5% | 13.1
CCCn1c(=O)c2ccc(C(=O)NC(C)C)cc2n2c(SCC(=O)c3ccccc3)nnc12 | 1.43 | 4.82 | -1.46 | -2.43% | 0.409
COc1ccc(-c2nnc3n(Cc4ccc(F)cc4)c(=O)c4ccccc4n23)c(O)c1 | -14.3 | 3.2 | 7.18 | 6.77% | 2.76
Cc1ccc(Cn2c(=O)c3ccccc3n3c(CCC(=O)NCCCN4CCC(C)CC4)nnc23)cc1 | -3.04 | 0 | -37 | 10.1% | 0.526
CC1CCN(CC2CCCN(C(=O)NC3CCCCC3)CC2)CC1 (stereo unspecified) | -2.05 | -2.16 | -3.93 | -2.42% | -4.28
Cc1ccccc1CCNC(=O)CNC(=O)C1(C)Cn2c(cc3ccccc32)C(=O)N1C (stereo unspecified) | -1.43 | 0 | 1.56 | -1.88% | -1.25
Cc1noc(C)c1S(=O)(=O)N1C[C@@H](Oc2cccnc2)C[C@H]1C(N)=O | -2.68 | 0.854 | -0.645 | -4.62% | 7.17
O=C(c1ccncc1)N1CCCC(Cc2noc(-c3cnccn3)n2)C1 (stereo unspecified) | -0.861 | 1.42 | 0.551 | 0.069% | 15.8
CSc1ccc(CNC(=O)c2cc3n(n2)CC(C)(C(=O)NCc2ccccc2)N(C)C3=O)cc1 (stereo unspecified) | 0.525 | 6.89 | 5.09 | -1.73% | -0.643
CCOc1ccc(CCNC(=O)C(CC)n2ccc3cc(S(=O)(=O)N4CCCCC4)ccc32)cc1 (stereo unspecified) | 2.51 | 0.405 | 0.59 | 4.88% | 0.221
COc1cccc(CSc2nnc3n(CC(C)C)c(=O)c4ccccc4n23)c1 | -1.97 | 0.627 | 6.17 | -8.66% | 3.78
Cc1ccc(NC2=CC(=O)c3sc(C)nc3C2=O)cc1 | -77.3 | -95.7 | -11.6 | -33.9% and -72.2% | -42.1
CN1C(=O)c2cc(C(=O)NCc3cccc(Cl)c3)nn2CC1(C)C(=O)NC1CCCCCC1 (stereo unspecified) | 4.95 | 1.84 | 8.87 | 7.18% | 2.94
CC1(C)CC(NC(=O)C(=O)Nc2ccc(Br)cc2)CC(C)(C)N1 | 0.377 | 4.03 | 8.93 | -9.53% | 3.85
